This is an account of results in paper PMC10882131.

Chains of the proteins cited; added tags and fusions are not shown.
UniProt Q10435: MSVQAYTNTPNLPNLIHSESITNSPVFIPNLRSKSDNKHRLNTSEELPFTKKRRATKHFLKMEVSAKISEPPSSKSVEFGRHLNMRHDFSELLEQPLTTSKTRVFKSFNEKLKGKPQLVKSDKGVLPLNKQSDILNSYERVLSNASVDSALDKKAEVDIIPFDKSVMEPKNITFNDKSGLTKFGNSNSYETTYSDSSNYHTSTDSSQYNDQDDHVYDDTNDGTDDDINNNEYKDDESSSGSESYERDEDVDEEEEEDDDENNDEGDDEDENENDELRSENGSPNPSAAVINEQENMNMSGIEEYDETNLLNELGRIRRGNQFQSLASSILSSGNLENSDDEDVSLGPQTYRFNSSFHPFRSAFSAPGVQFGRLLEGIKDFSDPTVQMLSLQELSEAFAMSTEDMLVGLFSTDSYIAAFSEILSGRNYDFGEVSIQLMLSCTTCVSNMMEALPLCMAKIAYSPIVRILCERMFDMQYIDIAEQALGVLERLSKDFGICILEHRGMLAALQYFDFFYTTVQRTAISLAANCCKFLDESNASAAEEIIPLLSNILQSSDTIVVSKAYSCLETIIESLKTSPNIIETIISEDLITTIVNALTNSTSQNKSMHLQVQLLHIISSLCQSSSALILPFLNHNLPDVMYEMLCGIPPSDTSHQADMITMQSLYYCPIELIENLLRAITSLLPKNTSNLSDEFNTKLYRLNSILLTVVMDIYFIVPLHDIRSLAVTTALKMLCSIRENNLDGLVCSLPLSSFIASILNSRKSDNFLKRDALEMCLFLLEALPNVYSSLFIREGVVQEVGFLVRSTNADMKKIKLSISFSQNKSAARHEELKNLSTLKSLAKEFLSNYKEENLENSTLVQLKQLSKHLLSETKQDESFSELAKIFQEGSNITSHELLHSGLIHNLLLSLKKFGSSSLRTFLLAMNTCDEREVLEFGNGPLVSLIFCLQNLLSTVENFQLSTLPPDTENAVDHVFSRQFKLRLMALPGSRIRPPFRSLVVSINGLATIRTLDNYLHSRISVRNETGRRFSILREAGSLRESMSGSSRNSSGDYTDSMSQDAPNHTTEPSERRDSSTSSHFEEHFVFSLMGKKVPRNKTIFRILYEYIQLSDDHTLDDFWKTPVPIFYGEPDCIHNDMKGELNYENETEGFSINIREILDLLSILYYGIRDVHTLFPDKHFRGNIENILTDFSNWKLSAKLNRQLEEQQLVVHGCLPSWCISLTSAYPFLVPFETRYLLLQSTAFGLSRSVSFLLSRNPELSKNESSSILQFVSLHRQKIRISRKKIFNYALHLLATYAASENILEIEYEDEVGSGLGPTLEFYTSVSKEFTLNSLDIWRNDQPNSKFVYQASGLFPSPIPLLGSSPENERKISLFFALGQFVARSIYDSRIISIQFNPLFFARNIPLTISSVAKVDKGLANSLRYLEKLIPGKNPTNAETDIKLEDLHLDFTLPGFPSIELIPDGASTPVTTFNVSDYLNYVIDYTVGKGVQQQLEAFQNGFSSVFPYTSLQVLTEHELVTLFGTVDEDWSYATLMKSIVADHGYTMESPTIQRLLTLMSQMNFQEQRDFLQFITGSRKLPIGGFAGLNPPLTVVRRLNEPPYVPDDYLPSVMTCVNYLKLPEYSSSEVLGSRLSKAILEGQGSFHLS

Results are given in words; binding and its absence hold for the method and conditions named. Binding seen in cells or lysates may run through a third protein. Some binding calls cover weakened binding; strength is not graded here. Sequences can lack the tags named with a protein.

B1: Php4^Δ217-295-GFP (domain or fragment, UniProt O14318 1-216)
chain: MESSKSPSEVEKSSSASPAPQKPMIRVSKQWVVPPRPKPGRKPALDALGRRKAPIKPRPGPTSALSVEEAKFRVREKQYQDTIGKLQKENNELLEQLEMLQAQLKNSTLDSPKEVEVNSEVVKPDSATTENENRYVNQYNYPVEPPCAKNAVYTEIPIELDPHAFLGDSAKRIRVDSDSKDAKSVPSENGRIRVSMSPQNEINFTPENPAVMEKIR
B2: Php4^Δ5-56-GFP (protein, UniProt O14318)
chain: MESSPRPGPTSALSVEEAKFRVREKQYQDTIGKLQKENNELLEQLEMLQAQLKNSTLDSPKEVEVNSEVVKPDSATTENENRYVNQYNYPVEPPCAKNAVYTEIPIELDPHAFLGDSAKRIRVDSDSKDAKSVPSENGRIRVSMSPQNEINFTPENPAVMEKIRKRGVCNSVEGCLYSGSPKSVKRVRESEETKVYAQLLIDLHKSSKSAPMLKAGPSIAFKLPTMEPNFNDVRPVTSISSSS
B3: Php4^Δ56-171-GFP (protein, UniProt O14318)
chain: MESSKSPSEVEKSSSASPAPQKPMIRVSKQWVVPPRPKPGRKPALDALGRRKAPIRIRVDSDSKDAKSVPSENGRIRVSMSPQNEINFTPENPAVMEKIRKRGVCNSVEGCLYSGSPKSVKRVRESEETKVYAQLLIDLHKSSKSAPMLKAGPSIAFKLPTMEPNFNDVRPVTSISSSS
B4: Php4^Δ171-217-GFP (protein, UniProt O14318)
chain: MESSKSPSEVEKSSSASPAPQKPMIRVSKQWVVPPRPKPGRKPALDALGRRKAPIKPRPGPTSALSVEEAKFRVREKQYQDTIGKLQKENNELLEQLEMLQAQLKNSTLDSPKEVEVNSEVVKPDSATTENENRYVNQYNYPVEPPCAKNAVYTEIPIELDPHAFLGDSARGVCNSVEGCLYSGSPKSVKRVRESEETKVYAQLLIDLHKSSKSAPMLKAGPSIAFKLPTMEPNFNDVRPVTSISSSS
B5: Php4-GFP (GFP-tagged full-length Php4) (protein, UniProt O14318 1-295)
chain: MESSKSPSEVEKSSSASPAPQKPMIRVSKQWVVPPRPKPGRKPALDALGRRKAPIKPRPGPTSALSVEEAKFRVREKQYQDTIGKLQKENNELLEQLEMLQAQLKNSTLDSPKEVEVNSEVVKPDSATTENENRYVNQYNYPVEPPCAKNAVYTEIPIELDPHAFLGDSAKRIRVDSDSKDAKSVPSENGRIRVSMSPQNEINFTPENPAVMEKIRKRGVCNSVEGCLYSGSPKSVKRVRESEETKVYAQLLIDLHKSSKSAPMLKAGPSIAFKLPTMEPNFNDVRPVTSISSSS

The first experiment concerns the target Hul6-HA (HECT-type E3 ubiquitin ligase 6, hemagglutinin epitope-tagged) (S. pombe) (UniProt Q10435). As to the kind of experiment: co-IP; anti-HA beads precipitate Hul6-HA from extracts of S. pombe cells grown 12 h in YE and then treated with bortezomib for 12 h; lysis buffer 50 mM Tris-HCl pH 7.5, 150 mM NaCl, 5 mM MgCl2, 1% Nonidet P-40; blot with anti-GFP.
Turning to B1, the binding entry is recorded as “no binding”.

For the molecule B2, the binding result is on record as “binds”.

Regarding B3, the binding entry is recorded as “binds”.

For the molecule B4, the binding result is reported as “binds”.

Consider B5, for which the binding entry was “binds”.

The next experiment deals with T1, Php4-GFP (GFP-tagged full-length Php4) (S. pombe) (UniProt O14318).
T1 sequence: B5 chain
The experiment can be described thus: co-IP; reciprocal: anti-GFP beads precipitate Php4-GFP from the same extracts (cells grown 12 h, then bortezomib 12 h); blot with anti-HA.
“Hul6-HA (HECT-type E3 ubiquitin ligase 6, hemagglutinin epitope-tagged) (from UniProt Q10435 1-1647) (enzyme)”: the binding entry is on record as “binds”.
